± gives the standard deviation of the averaged measurements. In all, about 4,100 sequences were measured (“relative kcat/Km (krel) vs genomic leader AAAGAU”: median about 1.7, highest 2% from about 6.5 on). The entries are a selection whose mix differs from that of the whole data set.
Molecular target: T1, E. coli RNase P holoenzyme (M1 P RNA + rnpA protein) (UniProt P0A7Y8)
T1 sequence: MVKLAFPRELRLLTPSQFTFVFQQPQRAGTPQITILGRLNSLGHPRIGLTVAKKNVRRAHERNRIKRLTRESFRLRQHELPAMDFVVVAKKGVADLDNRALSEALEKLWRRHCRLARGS
Assay: relative kcat/Km (krel) vs genomic leader AAAGAU (relative (reference leader = 1)); higher = faster RNase P cleavage
Experimental: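 HTS-Kin: a pool of ptRNA-Met (21C construct) with all 4096 combinations of 5' leader nucleotides N(-6) to N(-1) was processed in vitro by E. coli RNase P (P RNA + rnpA/C5 protein) under multiple-turnover conditions at 37 C, pH 8, 17.5 mM MgCl2. Residual substrate was Illumina-sequenced at several fractions reacted, and relative kcat/Km (krel) was computed by internal competition kinetics, calibrated to the genomic leader (AAAGAU = 1). The listed hexamer is the varied N(-6)..N(-1) leader (DNA letters), and it sits between a fixed 5' stem-loop flank (GCAUGCACGAAAGUGCGUGCUAUGAA) and the mature tRNA-Met starting GGCUACGUAGCUCAGUUGG. Two technical replicates are averaged.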

[1] = fraction of substrate reacted: ~26-29% (28.66% repeat 1, 26.4% repeat 2)
[2] = fraction of substrate reacted: ~9-10% (9.79% repeat 1, 9.1% repeat 2)
[3] = fraction of substrate reacted: ~13-16% (15.68% repeat 1, 13.17% repeat 2)

Sequence	relative kcat/Km [1]	relative kcat/Km [2]	relative kcat/Km [3]
GTCGGT	2.3 ± 1.4	–	–
TTACGT	–	0.467 ± 0.46	1.73 ± 1.6
TTAGCG	1.18 ± 0.066	–	0.258 ± 0.21
AATTAC	5.32 ± 1.9	3.5 ± 1.7	3.97 ± 0.31
GTCATA	7.54 ± 3	4.4 ± 2	4.91 ± 0.65
TTTATA	3.68 ± 1.5	2.14 ± 0.68	2.64 ± 0.089
TTGACT	1.29 ± 0.095	1.07 ± 0.43	0.843 ± 0.097
CGCAGC	3.89 ± 0.98	1.95 ± 0.49	2.54 ± 0.82
GATCTT	3.1 ± 1.4	1.79 ± 0.87	2.5 ± 0.031
GCGGAC	0.533 ± 0.27	–	0.914 ± 0.43
GTCGTC	4.02 ± 1.6	3.09 ± 1.7	2.79 ± 0.12
TGTACA	3.29 ± 1.4	2.01 ± 0.86	2.29 ± 0.24
GCGCCG	0.778 ± 0.35	–	–
GCAAAC	2.28 ± 0.6	2.18 ± 0.65	1.73 ± 0.082
CTTCCA	1.93 ± 0.68	2 ± 0.45	2.15 ± 0.27
GACGGT	1.46 ± 0.94	–	–
CCGTCT	2.49 ± 0.22	1.57 ± 0.58	2.06 ± 1.2
TGATAG	3.5 ± 1.5	1.83 ± 1.4	1.89 ± 0.38
CTAAAC	2.91 ± 0.65	1.46 ± 0.14	2.2 ± 0.18
TTGTCC	3.87 ± 1	2.58 ± 1.1	2.56 ± 0.32
CTCTTA	6.21 ± 2.8	2.98 ± 0.098	4.69 ± 1.5
ACATTC	4.5 ± 1.5	3.18 ± 1.5	3.46 ± 0.18
GATTGC	4.46 ± 1.8	2.61 ± 0.28	2.9 ± 1.2
CTGCAT	2.83 ± 0.62	2.54 ± 1.1	2.18 ± 0.43
GAAAAT	2.25 ± 0.38	1.09 ± 0.25	1.6 ± 0.3
AGCCTA	2.57 ± 0.69	2.05 ± 0.87	1.97 ± 0.57

Sequence	relative kcat/Km [1]	relative kcat/Km [2]	relative kcat/Km [3]
TTGTTT	2.75 ± 0.84	1.63 ± 0.47	1.95 ± 0.49
CCGCCA	1.26 ± 0.15	1.81 ± 0.4	0.725 ± 0.38
TTACCT	2.69 ± 1	2.13 ± 1.3	2.18 ± 0.87
CTGCTC	1.41 ± 0.074	1.68 ± 0.38	1.26 ± 0.57
AGAGGC	1.75 ± 1.7	0.655 ± 0.65	1.34 ± 1.2
CCGTCC	4.3 ± 0.5	3.03 ± 1.2	3.13 ± 0.67
TGGTAG	0.538 ± 0.38	–	–
CGTAGC	3.51 ± 1.3	2.02 ± 0.4	2.9 ± 0.65
AATTGC	3.61 ± 0.89	1.75 ± 0.96	2.6914 ± 0.001
AATTCA	2.07 ± 0.43	1.83 ± 1.4	2.06 ± 0.38
CGCGTT	1.57 ± 0.45	1.3 ± 0.38	1.2 ± 0.61
GTTCTC	2.54 ± 0.68	1.75 ± 0.3	2.04 ± 0.04
GCCCGG	0.437 ± 0.31	0.406 ± 0.099	–
AGTCAA	6.05 ± 2.9	2.58 ± 0.11	4 ± 1.2
CTAAAG	2.23 ± 0.5	1.2 ± 0.55	0.877 ± 0.6
CTCTCG	3.31 ± 0.37	1.91 ± 1.5	1.68 ± 0.37
GGGACC	0.61 ± 0.38	–	0.806 ± 0.55
CATAAA	4.07 ± 1.2	2.33 ± 1.1	2.67 ± 0.12
CTTGTC	1.38 ± 0.22	0.953 ± 0.22	1.07 ± 0.24
TGTAGA	6.3 ± 3.2	2.99 ± 0.16	3.99 ± 0.68
CTTCTA	2.29 ± 0.47	1.8 ± 1.3	1.63 ± 0.3
ACATTG	1.48 ± 0.15	–	–
ATGCCT	1.2 ± 0.037	–	1.06 ± 0.34
GAAACA	1.42 ± 0.21	2.06 ± 2	1.02 ± 0.084
TTAGGT	1.28 ± 1.2	–	–
AAAACT	0.972 ± 0.29	0.815 ± 0.37	–

Sequence	relative kcat/Km [1]	relative kcat/Km [2]	relative kcat/Km [3]
GGTTAC	2.13 ± 0.98	0.591 ± 0.54	1.09 ± 0.22
GCGAAG	1.25 ± 0.35	–	–
TGCGGA	1.14 ± 0.52	0.285 ± 0.27	0.896 ± 0.51
TCGCCG	1.82 ± 0.16	1.88 ± 0.96	1.01 ± 0.4
AAATTA	1.88 ± 0.53	1.94 ± 0.73	1.69 ± 0.28
GCGCCT	1.51 ± 0.049	1.18 ± 0.57	0.841 ± 0.28
TTCTTC	7.95 ± 3.2	4.65 ± 1.6	5.94 ± 0.85
CCATGA	4.06 ± 1.1	1.89 ± 0.2	2.66 ± 0.45
TGATTG	0.752 ± 0.44	–	0.252 ± 0.054
CTGGAC	0.764 ± 0.28	1.34 ± 0.36	0.646 ± 0.38
ATTACC	2.21 ± 0.71	1.64 ± 0.48	1.65 ± 0.26
TAGAAT	5.36 ± 2.3	2.56 ± 0.91	3.58 ± 0.58
AGTAAA	5.74 ± 2.5	3.49 ± 0.93	3.7 ± 1.4
ACAAGA	2.25 ± 0.74	1.37 ± 0.28	1.26 ± 0.58
AGCCAA	3.67 ± 0.53	1.73 ± 1.4	2.54 ± 0.036
TGGACA	0.947 ± 0.6	0.751 ± 0.13	0.729 ± 0.41
TAGTCT	4.35 ± 1.9	2.45 ± 1.3	3.04 ± 0.54
GGGCCC	0.973 ± 0.6	0.895 ± 0.33	0.887 ± 0.77
CCTTCT	2.41 ± 0.38	2.65 ± 1.4	1.65 ± 0.92
CACCGG	1.08 ± 0.15	–	–
CGGGGG	0.675 ± 0.42	–	–
TACGCC	7.66 ± 3.3	3.64 ± 0.043	5.35 ± 1.7
CGCTCT	3.68 ± 1.4	2.3 ± 0.091	2.53 ± 1.2
AGGTGC	0.616 ± 0.13	–	0.359 ± 0.23
CTTGTA	1.42 ± 0.46	1.4 ± 0.92	1.19 ± 0.34
AACACA	3.94 ± 1.5	3.35 ± 2.1	2.59 ± 0.34

Sequence	relative kcat/Km [1]	relative kcat/Km [2]	relative kcat/Km [3]
GCTTAG	2.32 ± 0.52	1.03 ± 1	0.936 ± 0.032
CGGGAG	0.28 ± 0.16	–	–
GAGTGA	1.86 ± 0.3	–	–
GCTAAG	0.836 ± 0.094	0.961 ± 0.2	0.281 ± 0.25
GGCTTC	1.7 ± 0.44	0.513 ± 0.13	1.31 ± 0.14
GAAGTA	1.18 ± 0.12	0.209 ± 0.11	0.813 ± 0.19
GTACGA	4.06 ± 1.7	–	2.23 ± 1
CCTCCT	1.29 ± 0.79	2.08 ± 1.7	1.23 ± 0.17
ACTGAC	2.47 ± 0.61	1.48 ± 0.23	1.44 ± 0.18
GAGCTT	1.75 ± 0.068	1.95 ± 1.7	1.05 ± 0.34
GAATCT	3.63 ± 2	1.52 ± 0.53	2.22 ± 0.41
GGATGG	0.8644 ± 0.0076	–	–
CAATCT	3.14 ± 0.86	2.12 ± 0.91	2.04 ± 0.33
TTACAG	2.78 ± 0.57	–	1.44 ± 0.6
GTTGAT	1.62 ± 0.72	1.71 ± 0.32	1.46 ± 0.57
TTTCCG	1.29 ± 0.027	–	0.326 ± 0.23
CTACTG	1.23 ± 0.06	–	–
GAACGC	2.77 ± 0.87	1.81 ± 0.21	1.7 ± 1.2
CTGTAA	3.91 ± 0.57	2.15 ± 0.24	2.476 ± 0.012
TTGGAC	1.5 ± 0.67	1.33 ± 0.99	1.66 ± 1.2
ATATCT	3.92 ± 1.3	2.7 ± 1.5	3.27 ± 0.033
ACTCAA	2.48 ± 0.61	–	2.05 ± 0.33
CCCCTC	3.17 ± 1.1	1.82 ± 0.31	2.16 ± 0.33
CAAGCA	1.47 ± 0.89	–	1.12 ± 0.73

Source: the supplement of paper PMC9433436
